# In all, about 310,000 compounds went through this assay and about 2,200 (0.71%) showed an effect of 50% or more. The effect is printed as a negative number. Some of the results follow.
# Target: human ether-à-go-go-related gene (hERG) potassium channel (human, UniProt Q12809)
# Assay: primary screen, population patch clamp on CHO cells stably expressing hERG
# Chain of human ether-à-go-go-related gene (hERG) potassium channel (Q12809 whole entry, looked up): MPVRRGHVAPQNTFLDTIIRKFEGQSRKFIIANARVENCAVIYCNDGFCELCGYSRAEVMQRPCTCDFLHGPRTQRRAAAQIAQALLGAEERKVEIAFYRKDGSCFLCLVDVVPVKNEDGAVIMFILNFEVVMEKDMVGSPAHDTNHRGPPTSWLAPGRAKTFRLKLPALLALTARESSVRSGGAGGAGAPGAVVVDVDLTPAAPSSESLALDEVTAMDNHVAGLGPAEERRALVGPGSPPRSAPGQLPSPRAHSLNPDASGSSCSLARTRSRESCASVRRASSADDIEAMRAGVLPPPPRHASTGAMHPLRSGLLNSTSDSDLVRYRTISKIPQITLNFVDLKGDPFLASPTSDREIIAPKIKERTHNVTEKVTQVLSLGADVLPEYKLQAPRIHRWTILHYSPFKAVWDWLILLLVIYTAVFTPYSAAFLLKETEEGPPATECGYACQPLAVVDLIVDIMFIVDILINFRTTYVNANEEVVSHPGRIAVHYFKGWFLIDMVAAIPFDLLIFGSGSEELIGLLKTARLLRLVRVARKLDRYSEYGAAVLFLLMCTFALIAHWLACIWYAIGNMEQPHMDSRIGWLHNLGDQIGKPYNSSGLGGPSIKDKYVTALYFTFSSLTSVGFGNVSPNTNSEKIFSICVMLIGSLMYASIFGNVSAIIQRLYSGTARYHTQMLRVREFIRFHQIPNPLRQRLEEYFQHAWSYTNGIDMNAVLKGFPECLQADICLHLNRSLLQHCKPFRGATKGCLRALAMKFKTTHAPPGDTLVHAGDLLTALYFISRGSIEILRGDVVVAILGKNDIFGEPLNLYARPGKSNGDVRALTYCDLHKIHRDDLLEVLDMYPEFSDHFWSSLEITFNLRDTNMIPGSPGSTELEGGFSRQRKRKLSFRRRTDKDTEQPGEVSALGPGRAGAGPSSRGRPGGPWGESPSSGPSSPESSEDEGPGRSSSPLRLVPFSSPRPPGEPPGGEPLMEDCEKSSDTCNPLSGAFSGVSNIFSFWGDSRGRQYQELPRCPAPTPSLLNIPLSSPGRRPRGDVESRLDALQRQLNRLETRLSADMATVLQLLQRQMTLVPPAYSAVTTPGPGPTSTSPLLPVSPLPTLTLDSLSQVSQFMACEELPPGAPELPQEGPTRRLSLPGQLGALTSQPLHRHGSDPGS
row,SMILES,"hERG current change (%, negative = inhibition) at 1uM [%]"
1,O=C(OCC(=O)N1CCOCC1)c1ccccc1OCc1ccccc1,5.7
2,COc1ccc(C(CNC(=O)c2oc3c(Cl)cccc3c2C)N2CCCC2)cc1 (stereo not drawn),1.09
3,O=[N+]([O-])c1ccccc1-c1cc(-c2cc(Cl)ccc2O)n[nH]1,3.78
4,Cc1ccc2c(c1)C1CN(C)CCC1N2C(=S)NC(=O)c1ccc(Br)cc1 (stereo not drawn),-0.824
5,CCN(c1ccccc1)S(=O)(=O)c1ccc(OC)c(NC(=O)CN(C)C)c1.O=C(O)C(=O)O,11.4
6,Cc1cc(=O)oc2c(C)c(OC(C)C(=O)NC(Cc3c[nH]c4ccc(O)cc34)C(=O)O)ccc12 (stereo not drawn),5.15
7,COc1ccc(NC(=O)c2cc3c(s2)CCC3)cc1S(=O)(=O)N1CCOCC1,3.21
8,CCOC(=O)c1c(C)[nH]c(C)c1S(=O)(=O)N(C)CC(=O)NCc1ccc(F)cc1,8.15
9,CC(=O)Oc1cc2c(cc1Cl)C1(CC(c3ccccc3Cl)O2)CC(C)(C)NC(=S)N1 (stereo not drawn),4.5
10,COc1ccccc1N1CCN(C2CCN(C(=O)c3cc(OC)c(OC)c(OC)c3)CC2)CC1,4.53
11,O=C(Nc1nc(-c2ccc3c(c2)OCO3)cs1)C1CC1,7.49
12,O=C(NCCC(=O)N1CCCCCCC1)c1ccc(Cl)cc1,6.22
13,Cc1cc(=O)[nH]c(SCC(=O)Nc2ccc(F)c([N+](=O)[O-])c2)n1,9.88
14,CN(C(=O)COc1ccccc1)C1CCS(=O)(=O)C1 (stereo not drawn),17.8
15,Cn1cc([N+](=O)[O-])c(C(=O)N2CCCCCC2)n1,-5.03
16,Cc1nonc1C(=O)N/N=C/c1ccc(O)cc1,16.3
17,CCC1C(=O)NCCN1C(=O)c1ccccc1OC1CCN(S(C)(=O)=O)CC1 (stereo not drawn),17.4
18,COc1ccccc1NS(=O)(=O)c1cccc(C(=O)NN=C2CCCCCC2)c1,8.14
19,Cc1cc(=O)[nH]c(N/N=C/CCc2ccccc2)n1,10.8
20,N/C(=N\OC(=O)C1CCCCC1)c1ccncc1,17.9
21,O=S(=O)(O)c1cccc2cccc(Nc3ccccc3)c12,6.12
22,O=[N+]([O-])c1nn(-c2ccc3c(c2)OCCO3)n(O)c1=NC1CCCCCC1,2.78

row,SMILES,"hERG current change (%, negative = inhibition) at 1uM [%]"
1,CN(C1CCCCC1)S(=O)(=O)c1ccc(-n2cnnn2)cc1,-2.66
2,COc1ccc(C2C(C#N)=C(N)Oc3cc(C)n(Cc4ccco4)c(=O)c32)cc1 (stereo not drawn),13.2
3,Cc1cccc(OCc2nnc(SCC(=O)N3CCCC3)o2)c1,7.81
4,Cc1nn(CC(=O)Nc2ccc3c(c2)oc2ccccc23)c(=O)c2ccccc12,11.6
5,CSc1nc(O)c(Cc2ccccc2)c(=O)[nH]1,10.8
6,Cc1ccc(C)c(S(=O)(=O)N2CCN(C(C)C(=O)Nc3ccccc3-c3ccccc3)CC2)c1 (stereo not drawn),3.23
7,Cc1nc(NC(=S)NC(=O)COc2ccccc2Cl)ccc1Br,3
8,O=C(NCCCCc1ccccc1)C12CN(Cc3ccccc3)CC1C(c1ccc([N+](=O)[O-])cc1)=NO2 (stereo not drawn),14.9
9,COc1cc(-n2c(C)nc3cc(C(=O)NCc4ccco4)ccc32)cc(OC)c1OC,4.74
10,COc1cc(C)nc(NS(=O)(=O)c2ccccc2)n1,12.9
11,CC(=O)N1CCC(Nc2ccc(C)cc2)CC1,11.2
12,CCCCCCC1C(C#N)=C(N)OC2=C1C(=O)CC(C)(C)C2 (stereo not drawn),9.9
13,C=CCOc1ccc(C2NC(=O)c3ccccc3O2)cc1 (stereo not drawn),10.5
14,CC12CCC(C(=O)NNc3ccccc3)(C(=O)C1=O)C2(C)C (stereo not drawn),16.6
15,O=S(=O)(NCC1CCCN(Cc2ccccc2)C1)c1cccc2cccnc12 (stereo not drawn),4.57
16,O=C(CSc1nc2ccccc2c(=O)n1-c1ccccc1Cl)NCC1CCCO1 (stereo not drawn),7.02
17,CCOc1ccccc1NC(=O)Cn1c(C)cc(COC)c(C#N)c1=O,14.8
18,C[n+]1c2n(c3ccccc31)N=C(c1ccc(Cl)cc1)CS2.[Br-],-51.9
19,C=CCn1c(C)cc(C(=O)COC(=O)c2ccc3c(c2)NC(=O)CS3)c1C,7.16
20,CC1CN(C)C(c2ccccc2)C(C)C12NC(=O)NC2=O (stereo not drawn),11.4
21,Cc1nc2ccc(S(=O)(=O)NC(C(=O)NCc3cccs3)C(C)C)cc2s1 (stereo not drawn),11.4
22,O=S1(=O)[C@H]2C[C@@H]3C=C[C@@]2(CN1Cc1cccc(F)c1)O3,11.9

row,SMILES,"hERG current change (%, negative = inhibition) at 1uM [%]"
1,CC1CC1C(=O)OCC(=O)Nc1cccc([N+](=O)[O-])c1 (stereo not drawn),8.69
2,COc1ccc(Nc2nccc(-c3ccc([N+](=O)[O-])cc3)n2)cc1,15.8
3,CCOC(=O)c1c(C)n(C)c2ccc(O)c(CN3CCCCC3)c12,-6.48
4,Cc1ccc(S(=O)(=O)Nc2ccc(C(=O)NCc3ccncc3)cc2)cc1,9.82
5,Cc1ccc2oc(C(=O)N3CCC(O)(c4cccc(C(F)(F)F)c4)CC3)c(C)c2c1,10.7
6,Cn1c(C(=O)O)ccc1S(=O)(=O)N(Cc1ccccc1)Cc1ccccc1,11.2
7,Cc1noc(C)c1CSc1nc2ccccc2nc1NS(=O)(=O)c1ccc(Cl)cc1,10.4
8,COc1ccc(C(=O)CSc2nnc3n2CCCN3C(=O)Nc2ccccc2)cc1,11.4
9,N#CCC(=O)N/N=C/c1ccc(OCC(=O)Nc2ccc(F)cc2)cc1,8.06
10,NC(=O)CC(NC(=O)c1cccc(Br)c1)c1ccc(N2CCC(N3CCCC3)CC2)c([N+](=O)[O-])c1 (stereo not drawn),5.16
11,O=C(c1ccco1)N1CCN(C(=O)c2cc(-c3ccccn3)nc3ccccc23)CC1,-11.2
12,Cc1ccccc1N(CC(=O)N1CCN(c2ccccc2)CC1)S(C)(=O)=O,2.16
13,Cn1c(CN2CCCCC2)c(C#N)c2ccccc21,1.87
14,CN=C(Nc1ccccc1)SC1CC(=O)N(c2ccc(C(=O)OC)cc2)C1=O (stereo not drawn),11.3
15,Cc1nn(Cc2ccccc2)c(C)c1NC(=O)c1noc2c1CCc1ccccc1-2,2.04
16,CCCNC(=O)COc1cccc(C(=O)NCc2ccccc2)c1,6.04
17,CC(C)c1ccc(NC(=O)CSc2nc3ncccc3[nH]2)cc1,12
18,COC(=O)[C@H](C)NC(=O)NCc1ccccc1,4.6
19,Cc1ccccc1NC1=NCC(C)S1 (stereo not drawn),1.59
20,C=CCOC(=O)C1=C(C)OC(N)=C(C(=O)OCC)C12C(=O)N(CC(N)=O)c1ccccc12 (stereo not drawn),0.391
21,C=CCN1C(=O)/C(=C2/Sc3ccc(OC)cc3N2C)SC1=Nc1ccc(OC)cc1,10.5
22,O=C(NCCCN1CCOCC1)c1cc(-c2ccc(F)cc2)on1,-8.44

row,SMILES,"hERG current change (%, negative = inhibition) at 1uM [%]"
1,Cc1onc(-c2ccccc2Cl)c1C(=O)Nc1ccc(CN2CCCC2)cc1,10.8
2,CCOC(=O)C1(C)C=C(Nc2ccc(OCC)cc2)C(=O)N1c1ccccc1 (stereo not drawn),16.7
3,CN1CC=C2C(C#N)=C(N)C(C#N)(C#N)C(Cc3ccccc3)C2C1 (stereo not drawn),6.55
4,CC(NS(=O)(=O)c1ccc(CCC(=O)NCc2cccnc2)cc1)c1ccccc1 (stereo not drawn),8.24
5,Nc1ccc2cc(Br)ccc2c1,4.09
6,COc1ccc(C(=O)Nc2ccccc2C(=O)NCc2ccco2)cc1OC,17.4
7,O=C(Cc1ccccc1[N+](=O)[O-])NCc1ccco1,11.7
8,Cc1ccc(S(=O)(=O)N2CCN(C(=O)N3CCCC3)CC2)cc1,14.5
9,COc1ccc(S(=O)(=O)N(C)CC(=O)Nc2cccc(C(C)=O)c2)cc1C,-7.17
10,Cc1cc(=O)[nH]c(=O)n1Cc1ccccc1,8.55
11,COc1ccc(N2C(=O)CC(Sc3n[nH]c(-c4ccc(C)cc4)n3)C2=O)cc1 (stereo not drawn),-1.35
12,CC1CCC(C(C)C)C(OC(=O)Cn2c(-c3ccc(Cl)cc3)[n+](C)c3ccccc32)C1.[Cl-] (stereo not drawn),-58
13,O=C1NC(=S)N(c2ccc(F)cc2)C(=O)/C1=C/c1ccccc1O,8.73
14,Cc1ccc(/C=N/n2c(-c3ccco3)n[nH]c2=S)s1,12.5
15,COc1ccc(C(c2c(O)c3ccccc3oc2=O)c2c(C)n(C)n(-c3ccccc3)c2=O)cc1 (stereo not drawn),8.94
16,CCOc1ccc(CN2CCC(C(=O)N3CCN(c4ccccc4F)CC3)CC2)cc1OC.O=C(O)C(=O)O,-20.7
17,Clc1ccc(Cc2nn3c(Cn4nnc5ccccc54)nnc3s2)cc1,-7.82
18,O=C(COC(=O)c1ccc(Cl)nc1)NC(=O)c1ccccc1,6.02
19,O=C(CN1CCCCC1)N1CCN(S(=O)(=O)c2ccccc2)C1,14.3
20,CCN1C(=O)c2ccccc2S(=O)c2ccc(C(=O)N3CCOCC3)cc21 (stereo not drawn),6.01
21,O=C(CN1C(=O)NC2(CCCC2)C1=O)Nc1cc(Cl)ccc1N1CCOCC1,6.96

# Source: article PMC4336329 (PLoS ONE, 2015)
